# Laboratory results from PubChem BioAssay AID2675 (National Center for Advancing Translational Sciences (NCATS), 2010).
# About 100 (0.036%) of roughly 280,000 compounds were called active. Inconclusive results, whose numbers are uncertain, are shown with a selection of clear calls. Calls follow the shape of the dose curve; as a rule, active = well fitted inhibition curve with a large enough effect in the signal ratio, with a control signal flat (not every such curve was filed as active); inconclusive = small, poorly fitted or top-dose-only effect, or effect the other way, or a change in a side signal; inactive = no such curve, though single readings can be large or run the other way; the % refers to the signal ratio. Where the call is inconclusive, the potency comes from a doubtful curve fit. “Side channel” marks fits to a control or component signal instead of the main read-out.
# Molecular target: Muscleblind-like protein 1 (Homo sapiens) (UniProt Q9NR56)
# Assay: qHTS Assay for Inhibitors of MBNL1-poly(CUG) RNA binding
# Settings: TR-FRET MBNL1-His/biotin-(CUG)12 binding, 665/545 ratio; activity change, negative = inhibition: at 57.5 µM (top of the series)
# Procedure, shortened: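 His-tagged MBNL1 binding to biotinylated (CUG)12 RNA was measured by TR-FRET using terbium anti-His antibody (0.055 ng/ul final) and streptavidin-XL665 (5 nM final). Compounds were titrated 92 nM to 58 uM; 60 min at room temperature.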
# % is scaled to controls: 0 for no effect and ±100 for the full control effect; potency is read from the fitted curve at half-maximal effect; tags tell the direction and shape of the fitted curve or compound fluorescence and quenching.
# Sequence of UniProt Q9NR56 (Q9NR56 whole entry, looked up): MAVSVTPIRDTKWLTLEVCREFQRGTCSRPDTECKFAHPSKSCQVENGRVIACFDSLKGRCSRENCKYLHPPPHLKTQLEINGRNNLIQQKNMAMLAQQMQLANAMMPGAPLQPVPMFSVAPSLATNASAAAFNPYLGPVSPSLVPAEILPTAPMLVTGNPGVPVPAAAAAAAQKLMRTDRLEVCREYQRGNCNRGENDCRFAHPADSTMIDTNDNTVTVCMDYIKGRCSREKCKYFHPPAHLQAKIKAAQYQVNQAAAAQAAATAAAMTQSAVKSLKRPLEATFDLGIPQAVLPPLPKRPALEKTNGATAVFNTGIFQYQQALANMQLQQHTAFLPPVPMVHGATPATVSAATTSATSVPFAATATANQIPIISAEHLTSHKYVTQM
Structure (SMILES),Potency,"activity change, negative = inhibition"
O=C(Nc1c2c(nc3ccccc13)CCCC2)c1ccccc1Cl,"inconclusive: 3.16 µM [fluorescent, side channel, partial curve]",–
C=CCNC(=O)c1ccc(Sc2ccccc2)c([N+](=O)[O-])c1,"inconclusive: 7.08 µM [quencher, side channel, partial curve]",–
O=C(N/N=C/c1cccc(Oc2ccccc2)c1)c1ccccc1F,"inconclusive: 31.6 µM [quencher, side channel, single point]",–
Cc1nc2cc(N=NC3=C(O)CCCC3=O)ccc2s1,"inconclusive: 4.47 µM [quencher, side channel, partial curve]",–
O=C1/C(=C\c2ccc(O)c(O)c2)SC(=S)N1Cc1ccccc1,"inconclusive: 28.2 µM [quencher, side channel, single point]",–
O=C(CN1CCCCC1)N=Nc1c(O)[nH]c2ccccc12,"inconclusive: 12.6 µM [quencher, side channel, partial curve]",–
C/C(=N/O)c1ccc2c(c1)OCCOCCOc1cc(/C(C)=N/O)ccc1OCCOCCO2,–,inactive: -6.72%
CC(=O)Oc1ccccc1/C=C/c1ccc2ccccc2[n+]1C,"inconclusive: 12.6 µM [quencher, side channel, partial curve]",–
O=C(NC(=S)N1CCN(c2ccc([N+](=O)[O-])cc2)CC1)c1ccccc1Cl,"inconclusive: 7.94 µM [quencher, side channel, full curve, poor fit]",–
CCC(C)C(NC(=O)/C(=C\c1ccccc1)NC(=O)c1ccc(OC)cc1)C(=O)O (stereo unspecified),–,inactive: -2.53%
O=C(N/N=C/c1ccc(N2CCCCC2)o1)c1ccccc1[N+](=O)[O-],"inconclusive: 12.6 µM [quencher, side channel, partial curve]",–
CCN(c1ccccc1)S(=O)(=O)c1cc(CN2C(=O)c3cccnc3C2=O)ccc1OC,"inconclusive: 12.6 µM [quencher, side channel, partial curve]",–
C/C(=N/Nc1ncc(C(F)(F)F)cc1Cl)c1ccncc1,"inconclusive: 28.2 µM [quencher, side channel, partial curve]",–
CNc1cccc2c1C(=O)c1ccccc1C2=O,"inconclusive: 10 µM [quencher, side channel, partial curve]",–
NC(=O)c1nsc(C(=O)N(Cc2ccc(F)cc2)C(C(=O)NCC2CCCO2)c2ccc(O)cc2)c1N (stereo unspecified),"inconclusive: 14.1 µM [quencher, side channel, partial curve]",–
CN(C)c1ccc([N+](=O)[O-])cc1C(=O)O,"inconclusive: 25.1 µM [quencher, side channel, single point]",–
COc1ncnc2c1N=C1CC(C)(C)CC(N)=C1S2,"inconclusive: 17.8 µM [quencher, side channel, partial curve]",–
C=CCNc1cc(N2CCCC2)ccc1[N+](=O)[O-],"inconclusive: 11.2 µM [quencher, side channel, partial curve]",–
CC1(OC(=O)C2CCCC2)C(=O)C=C2C=C(c3ccsc3)N(CCc3c[nH]c4ccccc34)C=C2C1=O (stereo unspecified),"inconclusive: 20 µM [quencher, partial curve]",–

Structure (SMILES),Potency,"activity change, negative = inhibition"
COc1ccc(/C=N/NC(=O)CSCc2ccc([N+](=O)[O-])cc2)cc1OC,"inconclusive: 14.1 µM [quencher, side channel, partial curve]",–
Cc1cccc[n+]1CC(=O)Nc1cccc([N+](=O)[O-])c1,"inconclusive: 20 µM [quencher, side channel, partial curve]",–
CCOc1ccc(N(Cc2cc3cc(OC)ccc3[nH]c2=O)S(C)(=O)=O)cc1,"inconclusive: 20 µM [inhibitor, single point]",–
Cc1cccc(NC(=O)NNC(=O)COc2ccc([N+](=O)[O-])cc2)c1C,"inconclusive: 12.6 µM [quencher, side channel, partial curve]",–
CCCN1C(=S)SC(C)(C)C1/[N+]([O-])=C/c1cccnc1 (stereo unspecified),"inconclusive: 14.1 µM [quencher, side channel, partial curve]",–
O=S(=O)(Nc1ccc(-n2cccc2)cc1)c1ccc(Cl)cc1Cl,"inconclusive: 3.16 µM [quencher, side channel, single point]",–
Cc1cc(Cl)ccc1NC(=O)CCC(=O)N/N=C/c1cc([N+](=O)[O-])ccc1O,–,inactive: 3.19%
CCC/C(O)=C1\C(=O)CC(C)(C)CC1=Nc1cccc([N+](=O)[O-])c1,"inconclusive: 20 µM [quencher, partial curve]",–
COc1ccc2cc3cc(C(=O)NCc4ccco4)oc3nc2c1,"inconclusive: 11.2 µM [quencher, side channel, partial curve]",–
CC(C)C(O)(C#CCN1CCCCCC1)c1ccccc1 (stereo unspecified),–,inactive: -0.102%
CCC1C(=O)C(C)(C)C(=O)OC1c1ccc([N+](=O)[O-])cc1 (stereo unspecified),"inconclusive: 14.1 µM [quencher, partial curve]",–
COc1ccccc1Nc1nc(-c2sc(NC(=O)c3ccccc3)nc2C)cs1,–,inactive: 47.4%
O=C1c2ccccc2C(=O)N1CCCCSc1nnc2c(Cl)cc(Cl)cn12,"inconclusive: 44.7 µM [quencher, side channel, single point]",–
COc1ccc(O)c(/C=N/N=C2/C(=O)Nc3ccccc32)c1,"inconclusive: 20 µM [quencher, side channel, single point]",–
CC(=O)c1sc(NS(=O)(=O)c2ccc(C)cc2)nc1-c1ccccc1,"inconclusive: 22.4 µM [quencher, side channel, single point]",–
Cc1onc(-c2ccccc2)c1C(=O)N/N=C/c1ccc([N+](=O)[O-])s1,"inconclusive: 4.47 µM [quencher, side channel, single point]",–
Cc1ccc2c(c1)C(=O)C(=O)N2CC(=O)OC(C)C,"inconclusive: 17.8 µM [quencher, single point]",–
CC[C@H](C)[C@@H]1NC(=O)c2cc([N+](=O)[O-])cc(F)c2NCCCC[C@@H](C(N)=O)NC(=O)[C@H](CC(N)=O)NC1=O,"inconclusive: 14.1 µM [quencher, side channel, partial curve]",–
O=C(Cn1cnc2cc([N+](=O)[O-])ccc2c1=O)Nc1ccc(N2CCOCC2)cc1,"inconclusive: 4.47 µM [quencher, side channel, full curve]",–

Structure (SMILES),Potency,"activity change, negative = inhibition"
COC(=O)c1c(NC(=O)C2COc3ccccc3O2)sc2c1CCN(C(C)=O)C2 (stereo unspecified),"inconclusive: 0.501 µM [quencher, side channel, full curve, poor fit]",–
CN1C(=O)/C(=C/c2ccccc2F)Sc2ccc(C(=O)N3CCCC3)cc21,"inconclusive: 31.6 µM [quencher, side channel, partial curve]",–
Fc1ccc(CSc2nncn2NC/C=C/c2ccccc2)cc1,"inconclusive: 10 µM [quencher, side channel, partial curve]",–
O=C(Cn1c(=O)n(Cc2ccc3c(c2)OCO3)c(=O)c2ccccc21)N1CCCc2ccccc21,"inconclusive: 39.8 µM [quencher, side channel, single point]",–
COc1ccc(N2CCN(c3ccc(N4C(=O)COCC4=O)cc3[N+](=O)[O-])CC2)cc1,–,inconclusive: 22.7% [phenotype inactive]
O=C(OCC(=O)N1CCCC1=O)c1nc(Cl)c(Cl)c(Cl)c1Cl,–,inactive: 10.7%
CC1CCCC(NC(=O)C2CCN(S(=O)(=O)c3cccc4nonc34)CC2)C1C (stereo unspecified),"inconclusive: 17.8 µM [quencher, side channel, partial curve]",–
Cc1ccc(-n2ncc(N(C)C)c(Cl)c2=O)cc1,"inconclusive: 17.8 µM [quencher, partial curve]",–
COc1ccc(OC)c(N/C(C)=C/C(=O)c2ccncc2)c1,"inconclusive: 28.2 µM [quencher, side channel, partial curve]",–
CCOC(=O)C1=C(CSc2nc3c(cc2C#N)CN(C)CC3)OC(N)=C(C#N)C1c1ccncc1 (stereo unspecified),"inconclusive: 12.6 µM [quencher, side channel, partial curve]",–
COC(=O)COc1ccc(/C=C2/NC(=O)N(CC(=O)OC)C2=O)cc1,"inconclusive: 15.8 µM [quencher, side channel, partial curve]",–
O=C(NCCCN1CCN(CCCNC(=O)c2cccc([N+](=O)[O-])c2)CC1)c1cccc([N+](=O)[O-])c1,"inconclusive: 35.5 µM [quencher, side channel, partial curve]",–
CC1(C)Oc2ccc3ccc(=O)oc3c2/C(=C/NCCO)C1=O,"inconclusive: 15.8 µM [quencher, side channel, partial curve]",–
CC(C(=O)Nc1sc2c(c1C(=O)NCc1ccco1)CCCC2)N1C(=O)c2ccccc2C1=O (stereo unspecified),–,inactive: -3.7%
N#Cc1cc2ccccc2nc1SCC(=O)Nc1ccc(S(=O)(=O)N2CCCC2)cc1,"inconclusive: 39.8 µM [fluorescent, single point]",–
c1csc(C2=Nn3c(nnc3-c3ccncc3)SC2)c1,"inconclusive: 10 µM [quencher, side channel, partial curve]",–
Cc1nc2ccc(-c3nc4ccc(N)cc4[nH]3)cc2[nH]1,–,inactive: -7.33%
COc1cc(N=Nc2cccc(S(N)(=O)=O)c2)c2ccccc2c1N,"inconclusive: 7.08 µM [quencher, side channel, partial curve]",–
